Measurements from PubChem BioAssay AID720708 (National Center for Advancing Translational Sciences (NCATS), 2013).
Hit rate of the full screen: of about 360,000 compounds, about 660 (0.18%) were called active. The shares of active, inactive and inconclusive entries below differ from those in the screen. Calls come from the whole dose curve; as a rule, active = well fitted inhibition curve with a large enough effect; inconclusive = small, poorly fitted or top-dose-only effect; inactive = no such curve, though single readings can be large or run the other way. Potencies of inconclusive entries are left out as doubtful fits.

Biological target: Rap guanine nucleotide exchange factor 4 (Homo sapiens) (UniProt Q8WZA2)
UniProt Q8WZA2, sequence (Q8WZA2 whole entry, looked up): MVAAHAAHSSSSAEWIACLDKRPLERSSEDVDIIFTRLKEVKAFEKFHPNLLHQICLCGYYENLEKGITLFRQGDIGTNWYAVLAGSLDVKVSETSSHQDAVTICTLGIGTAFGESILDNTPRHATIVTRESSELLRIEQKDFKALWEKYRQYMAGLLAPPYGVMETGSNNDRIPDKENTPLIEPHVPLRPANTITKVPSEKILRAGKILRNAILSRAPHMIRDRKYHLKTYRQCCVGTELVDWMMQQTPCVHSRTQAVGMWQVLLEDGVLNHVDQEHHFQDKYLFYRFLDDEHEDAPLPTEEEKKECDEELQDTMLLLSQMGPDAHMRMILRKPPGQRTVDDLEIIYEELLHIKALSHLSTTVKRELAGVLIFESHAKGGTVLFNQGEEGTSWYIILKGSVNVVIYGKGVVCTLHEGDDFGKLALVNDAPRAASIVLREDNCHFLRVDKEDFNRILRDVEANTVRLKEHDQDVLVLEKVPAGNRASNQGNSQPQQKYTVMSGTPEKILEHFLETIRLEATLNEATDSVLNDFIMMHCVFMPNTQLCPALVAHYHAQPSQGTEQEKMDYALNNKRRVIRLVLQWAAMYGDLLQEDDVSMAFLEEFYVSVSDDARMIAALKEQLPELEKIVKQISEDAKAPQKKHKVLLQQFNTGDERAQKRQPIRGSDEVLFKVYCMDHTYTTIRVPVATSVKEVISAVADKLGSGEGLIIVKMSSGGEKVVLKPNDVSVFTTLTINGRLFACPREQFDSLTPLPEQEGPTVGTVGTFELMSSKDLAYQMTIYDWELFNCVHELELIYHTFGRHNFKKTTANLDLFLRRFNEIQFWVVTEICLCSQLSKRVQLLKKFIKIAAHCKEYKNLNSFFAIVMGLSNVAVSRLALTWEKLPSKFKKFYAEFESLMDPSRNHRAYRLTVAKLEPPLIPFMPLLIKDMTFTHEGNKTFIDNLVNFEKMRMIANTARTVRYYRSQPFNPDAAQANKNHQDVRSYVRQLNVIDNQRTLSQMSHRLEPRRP
Test: qHTS for Antagonist of cAMP-regulated guanine nucleotide exchange factor 2 (EPAC2): primary screen; note: nearly all actives have a fitted effect of over 45% in size
Conditions: EPAC2 GEF exchange of Rap1B-BODIPY-GDP, fluorescence; activity, negative = inhibition: at 114 µM (top of the series) unless noted
% is set by controls: 0 for no effect and ±100 for the full control effect; potency is the fitted concentration of half-maximal effect; tags give direction and shape of the fitted curve.

SMILES	Potency	activity, negative = inhibition
Cc1ccc(-n2[nH]c(C)c(C=Nc3ccc4[nH]c(=O)[nH]c4c3)c2=O)cc1C	inconclusive [inhibitor, single point]	
Cc1ccccc1CN(C)CC(=O)NC(C)CCc1ccccc1 (centres undefined)	inconclusive [inhibitor, full curve]	
COc1ccc(N(C(=O)c2snc(C(N)=O)c2N)C(C(=O)NCc2ccccc2)c2ccc(F)cc2)c(OC)c1 (centres undefined)	inconclusive [inhibitor, single point]	
Fc1cccc(COc2ccccc2C(=S)N2CCCC2)c1	inconclusive [inhibitor, partial curve]	
COc1ccc(C(CC(=O)c2ccc(C)cc2)Sc2ccccc2N)cc1 (centres undefined)	inconclusive [inhibitor, partial curve]	
C[C@@H](c1ccccc1)N1C[C@H](COCc2ccccc2)Oc2cc(N3CC[C@H](O)C3)ccc2S1(=O)=O	inconclusive [inhibitor, partial curve]	
O=C(Cc1ccccc1)N1CCc2ccccc21		inactive: -0.767%
NC(=O)c1cc(S(=O)(=O)N2CCc3ccccc3C2)cs1		inactive: 4.38%
COc1cn(-c2ccccc2)nc1C(=O)Nc1ccc(C)cc1	inconclusive [inhibitor, partial curve]	
COc1cccc(/C=C(\C#N)C(=O)NC2CCS(=O)(=O)C2)c1 (centres undefined)		inactive: 18.6%
CCN(CC)CCN(C(=O)c1ccc(S(=O)(=O)N(CC)c2ccccc2)cc1)c1nc2c(OC)ccc(OC)c2s1		inactive: -3.73%
C#CCOCCOCCOCCNc1nc(N2CCN(C(=O)CCCCCCCCCCNC(=O)[C@@H](CCSC)n3cc(CCO)nn3)CC2)nc(N2CCN(C(=O)CCCCCCCCCCNC(=O)[C@H]([C@@H](C)CC)n3cc(CCCCCN)nn3)CC2)n1	inconclusive [inhibitor, partial curve]	
O=C(CSc1nc2ccccc2c(=O)n1Cc1ccccc1)Nc1ccc(Br)cc1C(=O)O	inconclusive [inhibitor, partial curve, poor fit]	
CC1COC(Cn2c3ccccc3c3ccccc32)O1 (centres undefined)	inconclusive [inhibitor, partial curve]	
Cc1cccc(N=Nc2ccc(O)c3ncccc23)c1		inactive: -23.3%
COc1ccc(N(CC(=O)Nc2ccccc2Cl)S(=O)(=O)c2ccc(C)cc2)cc1OC	inconclusive [inhibitor, full curve, poor fit]	
Cc1ccc(C)c(S(=O)(=O)Nc2ccc(C(=O)NCC(c3ccco3)N(C)C)cc2)c1 (centres undefined)		inactive: 6.55%
CC(=O)Nc1ccc(C(=O)OCC(=O)NCc2ccccc2)cc1		inactive: -15.7%
CC1=Nc2cc(C(=O)O)ccc2Sc2ccc(Br)cc21	inconclusive [inhibitor, single point]	
CC(C)C(C(=O)Nc1nccs1)c1ccc(Cl)cc1 (centres undefined)	inconclusive [inhibitor, full curve]	
CCC(C)(C)c1ccc(Oc2ccc(N)cc2)cc1	inconclusive [inhibitor, partial curve]	
Cc1noc(NS(=O)(=O)c2ccc(N/C=C\C(=O)c3cccc4ccccc34)cc2)c1C	inconclusive [inhibitor, partial curve]	

SMILES	Potency	activity, negative = inhibition
C#CCN1CCc2onc(-c3ccc(Br)cc3)c2C1=O		inactive: -1.93%
CCc1ccc(CN(C)C(=O)c2cc(COc3ccc(OC)cc3Cl)on2)nc1		inactive: 1.92%
O=C(NCCN1CCN(c2ccc([N+](=O)[O-])cc2)CC1)NCc1ccccc1		inactive: 3.93%
COc1ccc(C(CNC(=O)c2ccc(-c3cccc(C(F)(F)F)c3)o2)N2CCOCC2)cc1 (centres undefined)	inconclusive [inhibitor, partial curve]	
CC1=C(C(=O)N(C(C)C)C(C)C)CC(CC(=O)NCc2cccs2)C(=O)N1CCC1=CCCCC1 (centres undefined)	inconclusive [inhibitor, single point]	
O=C(NCC1CCCO1)c1cncc(Br)c1 (centres undefined)		inactive: -3.87%
O=C(O)COC(=O)Cc1ccccc1Nc1c(Cl)cccc1Cl		inactive: -25.2%
COc1cc2c(c(OC)c1OC)C(c1ccccc1C)CC(=O)O2 (centres undefined)	inconclusive [inhibitor, full curve]	
C/C(Cl)=C\COc1cc(C)nc2c(Br)cccc12	inconclusive [inhibitor, partial curve]	
Cc1ccc(S(=O)(=O)Nc2cccc(CP(=O)(c3ccccc3)c3ccccc3)c2)cc1	inconclusive [inhibitor, single point]	
NNC(=O)c1csc(Cc2c(Cl)sc3ccc(Cl)cc23)n1	inconclusive [inhibitor, partial curve]	
COc1ccc(-c2csc(NC(=O)CSc3nc(C)cs3)n2)cc1		inactive: 6.5%
CN(CCO)c1ccc(C=NNc2ccc([N+](=O)[O-])cc2S(=O)(=O)Nc2ccccc2C(=O)O)cc1	inconclusive [inhibitor, single point]	
Cc1ccc(OCCn2cccn2)c(C)c1	inconclusive [inhibitor, partial curve]	
COc1ccc(NC(=O)CSc2nnc(-c3cccs3)n2N)cc1S(N)(=O)=O		inactive: -2.7%
Cc1ccc(C(=O)c2ccccc2C(=O)OCC(=O)NC(=O)NC(C)(C)C)cc1	inconclusive [inhibitor, single point]	
COC(=O)CC(c1ccc(C(C)C)cc1)n1cccc1 (centres undefined)	inconclusive [inhibitor, partial curve]	
CCCCN(C)C(=O)c1sc(=O)n(Cc2c(C)cccc2C)c1C		inactive: -9.6%
CCN(Cc1ccccc1)C(c1ccccn1)c1nnnn1C(C)(C)CC (centres undefined)	inconclusive [inhibitor, partial curve]	
CCN(Cc1ccccc1)S(=O)(=O)c1ccccc1Br	inconclusive [inhibitor, full curve, poor fit]	
Cc1[nH]c(C)c2c(=O)n(Cc3ccc(Cl)cc3)ncc12	inconclusive [inhibitor, full curve]	
C[C@@H]1CN(C(=O)c2cc(COc3cccc(C(F)(F)F)c3)on2)C[C@H](C)O1	inconclusive [inhibitor, single point]	
